Measured values reported in paper PMC4336329 (PLoS ONE, 2015).
Among all 310,000 compounds or so, about 14,000 (4.5%) showed an effect of 50% or more. Effects have a minus sign here. Some of the results follow.

molecular target: human ether-à-go-go-related gene (hERG) potassium channel (human, UniProt Q12809); test: primary screen, population patch clamp on CHO cells stably expressing hERG
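Further: peak tail current of the secondary pulse compared with the same well before compound.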

Chain of human ether-à-go-go-related gene (hERG) potassium channel (Q12809 whole entry, looked up): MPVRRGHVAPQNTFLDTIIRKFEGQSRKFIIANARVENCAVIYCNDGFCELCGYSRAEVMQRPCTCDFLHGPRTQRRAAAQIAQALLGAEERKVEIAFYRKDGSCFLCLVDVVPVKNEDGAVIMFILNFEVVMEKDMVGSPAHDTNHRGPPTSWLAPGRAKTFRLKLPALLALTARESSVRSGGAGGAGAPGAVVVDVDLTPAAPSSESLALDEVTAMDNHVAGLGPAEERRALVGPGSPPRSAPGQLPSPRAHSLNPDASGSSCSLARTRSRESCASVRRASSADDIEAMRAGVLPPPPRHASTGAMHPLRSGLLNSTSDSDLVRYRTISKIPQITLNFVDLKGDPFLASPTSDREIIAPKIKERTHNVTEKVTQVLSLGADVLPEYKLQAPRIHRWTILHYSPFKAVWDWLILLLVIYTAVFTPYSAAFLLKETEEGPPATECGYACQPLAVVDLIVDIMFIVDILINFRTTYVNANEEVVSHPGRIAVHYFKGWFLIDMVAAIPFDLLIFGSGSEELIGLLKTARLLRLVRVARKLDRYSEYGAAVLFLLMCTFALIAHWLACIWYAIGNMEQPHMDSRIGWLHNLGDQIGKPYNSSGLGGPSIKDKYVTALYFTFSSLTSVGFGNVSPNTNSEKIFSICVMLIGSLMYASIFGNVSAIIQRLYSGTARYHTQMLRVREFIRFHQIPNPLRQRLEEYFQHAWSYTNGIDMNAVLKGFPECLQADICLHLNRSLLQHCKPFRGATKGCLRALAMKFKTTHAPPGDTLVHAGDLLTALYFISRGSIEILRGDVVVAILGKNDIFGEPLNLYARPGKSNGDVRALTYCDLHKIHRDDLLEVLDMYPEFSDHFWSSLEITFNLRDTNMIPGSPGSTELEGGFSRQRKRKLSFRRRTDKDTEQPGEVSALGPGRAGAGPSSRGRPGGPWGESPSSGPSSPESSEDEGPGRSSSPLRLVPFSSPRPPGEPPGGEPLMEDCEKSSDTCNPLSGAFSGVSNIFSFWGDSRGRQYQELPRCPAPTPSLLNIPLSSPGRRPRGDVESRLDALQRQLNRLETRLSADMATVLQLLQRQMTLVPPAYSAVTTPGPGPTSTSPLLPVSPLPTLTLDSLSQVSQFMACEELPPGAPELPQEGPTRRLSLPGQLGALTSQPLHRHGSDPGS

Compound | hERG current change (%, negative = inhibition) at 10uM [%]
Cc1cc(NC(=O)c2ccccc2C)ccc1NC(=O)c1ccccc1Cl | -17.4
CSc1ccccc1N=Cc1nc(-c2ccccc2)oc1O | 8.89
COCCn1c(SCC(=O)Nc2ccc(OC)c(S(N)(=O)=O)c2)nc2ccccc2c1=O | 8.06
Cc1cc(C)c(N2CCN(S(=O)(=O)N3CCCCCC3)CC2)c(C)c1 | 0.083
CC(C)CNc1oc(-c2ccccc2Cl)nc1C#N | -10.5
COc1ccc(C(=O)Nc2cc(Cl)ccc2Cl)c(OC)n1 | -5.79
Nc1c(-c2ccccc2)c(CSc2nc3ccccc3[nH]2)nn1-c1cccc(C(=O)O)c1 | 21
O=C(Nc1ccccc1N1CCCCC1)c1ccc(OC(F)F)cc1 | -44.8
COc1cc2c(cc1OC)C(c1ccccc1N)=NCC2 | 7.88
Cc1cc(OCC(=O)N(Cc2ccco2)C2CCS(=O)(=O)C2)ccc1Cl (stereo not shown) | -38.5
CCn1c(S(=O)(=O)O)nc2ccccc21 | 5.13
CCCCOC(=O)c1ccc(NC(=O)c2c(Cl)ccc(Cl)c2OC)cc1 | 25.7
Cc1ccc(NC(=O)CC2S/C(=N/N=C/c3c[nH]c4ccccc34)NC2=O)cc1 (stereo not shown) | -1.01
C=CCN1C(=O)C(CC(=O)Nc2ccc(OCC)cc2)N(Cc2ccccn2)C1=S (stereo not shown) | -47
O=C(c1ccc(CNc2c(N3CCOCC3)c(=O)c2=O)cc1)N1CC=C(c2ccccc2)CC1 | -5.86
CC1CCC(N2CCN(c3ncccn3)CC2)CC1 (stereo not shown) | -1.23
CC(C)(C)C(=O)Nc1cc(NC(=O)C(C)(C)C)cc(C(=O)Nc2cc(C(=O)O)cc(C(=O)O)c2)c1 | 0.898
COc1cc(OC)cc(C(=O)N[C@H](C(=O)NC23CC4CC(CC(C4)C2)C3)C(C)C)c1 | 11.8
Cc1ccc(-c2csc3ncnc(SCC(N)=O)c23)cc1 | 4.19
CC(C)C(=O)OCC(=O)Nc1ccc(N=Nc2ccccc2)cc1 | 4.2
Cc1ccc(S(=O)(=O)N2CC3CCC2C3)cc1 (stereo not shown) | 9.74
Cc1ccc2c(c1)N(Cc1cccc(F)c1)C(=O)C(C)O2 (stereo not shown) | -3.11

Compound | hERG current change (%, negative = inhibition) at 10uM [%]
CCC(C)N(C(=O)COC(=O)c1cc([N+](=O)[O-])ccc1N1CCOCC1)C1CCS(=O)(=O)C1 (stereo not shown) | -7.74
N[C@@H](Cc1cc(I)c(Oc2cc(I)c(O)c(I)c2)c(I)c1)C(=O)O | 3.25
Cc1occc1-c1nnc(SCC(=O)c2ccc(Cl)cc2)n1CC1CCCO1 (stereo not shown) | -65.1
CC(C)CN(C(=O)CSc1nnc2c(Cl)cc(C(F)(F)F)cn12)C1CCS(=O)(=O)C1 (stereo not shown) | -4.09
COc1cc(Br)cc2cc(C(=O)N3CCCCC3C)c(=O)oc12 (stereo not shown) | 4.25
Cn1/c(=N\NC(=O)C2CCCCC2)sc2ccccc21 | 23
CCC(=O)Nc1c2c(nn1-c1ccc(F)cc1)CS(=O)(=O)C2 | 6.37
CNS(=O)(=O)c1cccc(C(=O)OCC(=O)Nc2cc(F)ccc2F)c1 | -36.7
COc1ccccc1N1CCN(C(=O)c2ccc(-c3ccc(Cl)cc3)o2)CC1 | -7.22
O=C(CSc1nc2ccccc2c(=O)n1-c1ccc(Cl)cc1)N/N=C/C=C/c1ccccc1[N+](=O)[O-] | -4.34
O=C(CN1CCN(C(=O)c2ccco2)CC1)N1CCc2[nH]c3ccccc3c2C1 | -18.5
COc1ccc(CNC(=O)CCNS(=O)(=O)c2cc(Br)cnc2N)cc1 | -1.97
CCOC(=O)C1=C(C)N=c2s/c(=C/c3cccc([N+](=O)[O-])c3O)c(=O)n2C1c1ccc(OC)cc1OC (stereo not shown) | 21.6
CCOC(=O)c1sc(NC(=O)CCN2C(=O)C3CCCCC3C2=O)cc1C (stereo not shown) | -7.92
COc1ccc(CNC(=O)CN(C(=O)c2cc3sccc3n2C)C2CCCC2)cc1 | -0.866
Cc1ccc2[nH]c(C)c(CC(=O)O)c2c1 | 39.7
Cc1ccc(C(=O)N2CCCC2)cc1S(=O)(=O)Nc1cccc(C)c1C | -22.4
O=C(O)c1ccc(Nc2cnc3ccccc3n2)cc1 | 1.09
N#Cc1ccc(C23CC4CC(CC(C4)C2)C3)[nH]c1=O | -2.13
COc1cc2ccccc2cc1C(=O)Nc1ccc(N2CCN(C)CC2)cc1 | -10.4
O=C(Nc1cccc(F)c1)Nc1ccnn1C1CCN(C(=O)CCN2CCCO2)CC1 | -8.39
